According to PMC5217673:
No constants are given. Whether binding was seen depends on the method and setting. Binding seen in cells or lysates may run through a third protein. Some binding calls cover weakened binding; strength is not graded here.

Amino acid sequences for entries named in this document (tags omitted). A change or cut given only in a name is not applied to a line headed by its entry. Residues count along the entry.
GST-N-WASP WH1 + GBD (residues 30–274) (O00401, residues 30-274): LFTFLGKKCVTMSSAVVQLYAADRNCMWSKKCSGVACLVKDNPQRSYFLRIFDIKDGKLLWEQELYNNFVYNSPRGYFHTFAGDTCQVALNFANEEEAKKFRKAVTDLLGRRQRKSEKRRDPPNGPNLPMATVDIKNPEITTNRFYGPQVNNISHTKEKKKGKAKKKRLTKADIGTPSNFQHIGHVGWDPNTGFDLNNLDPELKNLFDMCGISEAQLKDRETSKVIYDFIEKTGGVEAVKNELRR
GST-N-WASP WH1 domain (residues 30–142) (O00401, residues 30-142): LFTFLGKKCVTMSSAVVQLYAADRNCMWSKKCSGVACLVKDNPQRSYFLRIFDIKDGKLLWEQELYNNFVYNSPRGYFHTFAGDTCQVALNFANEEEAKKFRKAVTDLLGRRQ
GST-N-WASP extended GBD (residues 156–274) (O00401, residues 156-274): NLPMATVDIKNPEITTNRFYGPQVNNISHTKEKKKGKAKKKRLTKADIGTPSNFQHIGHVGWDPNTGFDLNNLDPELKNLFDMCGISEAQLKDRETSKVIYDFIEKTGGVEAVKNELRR
UniProt Q7BCK4: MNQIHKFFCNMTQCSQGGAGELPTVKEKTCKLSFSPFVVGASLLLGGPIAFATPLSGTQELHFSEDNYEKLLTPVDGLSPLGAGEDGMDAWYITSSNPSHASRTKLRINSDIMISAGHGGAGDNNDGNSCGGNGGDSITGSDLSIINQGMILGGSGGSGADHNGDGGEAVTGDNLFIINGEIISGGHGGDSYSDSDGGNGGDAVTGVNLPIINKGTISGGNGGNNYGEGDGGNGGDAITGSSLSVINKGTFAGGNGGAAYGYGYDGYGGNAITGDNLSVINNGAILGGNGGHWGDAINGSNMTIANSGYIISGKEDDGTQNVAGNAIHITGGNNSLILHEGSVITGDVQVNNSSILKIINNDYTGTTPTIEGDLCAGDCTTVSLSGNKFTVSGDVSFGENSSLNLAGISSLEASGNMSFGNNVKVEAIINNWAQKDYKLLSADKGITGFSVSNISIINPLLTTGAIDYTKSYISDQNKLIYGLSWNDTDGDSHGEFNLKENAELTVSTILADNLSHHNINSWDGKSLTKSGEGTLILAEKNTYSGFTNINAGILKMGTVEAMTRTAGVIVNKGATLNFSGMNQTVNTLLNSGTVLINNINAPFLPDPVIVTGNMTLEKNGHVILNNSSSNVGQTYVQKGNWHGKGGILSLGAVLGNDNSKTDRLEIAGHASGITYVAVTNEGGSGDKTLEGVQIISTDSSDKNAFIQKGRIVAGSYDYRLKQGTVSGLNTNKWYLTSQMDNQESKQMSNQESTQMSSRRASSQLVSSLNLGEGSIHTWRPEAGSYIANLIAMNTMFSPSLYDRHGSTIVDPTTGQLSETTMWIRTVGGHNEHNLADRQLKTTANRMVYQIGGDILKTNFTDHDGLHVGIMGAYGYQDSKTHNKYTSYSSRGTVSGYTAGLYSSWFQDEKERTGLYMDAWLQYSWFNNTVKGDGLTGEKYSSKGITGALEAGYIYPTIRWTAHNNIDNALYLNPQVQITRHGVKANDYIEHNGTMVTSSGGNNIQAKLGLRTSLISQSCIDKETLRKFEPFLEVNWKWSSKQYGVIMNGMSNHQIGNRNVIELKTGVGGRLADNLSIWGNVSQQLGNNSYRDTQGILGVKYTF

Key:
Assay in all cases: pull-down; GST-N-WASP proteins (50 μg) on magnetic GST beads, Myc-IcsA truncations from wheat germ cell-free reactions, 50 mM Tris pH 7.4, 50 mM NaCl, 0.1% Nonidet P-40, 1 h at 4 °C; Western blot against Myc; only the target purified
[1] = biological target: GST-N-WASP extended GBD (residues 156–274) (UniProt O00401)
[2] = biological target: GST-N-WASP WH1 + GBD (residues 30–274) (UniProt O00401)
[3] = biological target: GST-N-WASP WH1 domain (residues 30–142) (UniProt O00401)

Substance	binding [1]	binding [2]	binding [3]
Myc-IcsA residues 53–433 (from UniProt Q7BCK4 53-433) (domain or fragment)	binds	–	–
Myc-IcsA residues 53–508 (from UniProt Q7BCK4 53-508) (domain or fragment)	binds	binds	binds
Myc-IcsA residues 173–433 (from UniProt Q7BCK4 173-433) (domain or fragment)	no binding	binds	binds
Myc-IcsA residues 203–508 (from UniProt Q7BCK4 203-508) (domain or fragment)	–	–	no binding
